Data reported in the supplement of paper PMC4967469.
By IC50 is meant the dose at which the fit gives 50% viability; a limit (>, <) means that the fit lies beyond the doses tested. AUC is the area under the same curve over the 256-fold range up to the top dose, as a fraction; values near 1 show little effect. For part of these data: Any top dose called inferred comes from the curve model; the source does not state it.

Assays:
Test in all cases: Viability of human cancer cell lines after 72 h of drug (GDSC screen)
Etoposide = compound: COc1cc([C@@H]2c3cc4c(cc3[C@@H](O[C@@H]3O[C@@H]5CO[C@@H](C)O[C@H]5[C@H](O)[C@H]3O)[C@H]3COC(=O)[C@H]23)OCO4)cc(OC)c1O [Etoposide]; details: top dose 16 µM
Method: (§1)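 Human cancer cell lines in 384-well plates, medium with 10% serum, drug for 72 h over a 256-fold dose range (nine 2-fold or five 4-fold steps up to the top dose). Adherent lines were fixed and stained with the nucleic acid dye Syto60, suspension lines read with resazurin; signal relative to control wells, capped at 0 and 100%. One two-parameter sigmoid per drug and line, fitted in a mixed model over all curves with the slope shared within a line.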

NPK76-II-72-1 = compound: COc1cc(C(=O)NC2CCN(C)CC2)ccc1Nc1ncc2c(n1)N(C1CCCC1)C(C)CC(=O)N2C [NPK76-II-72-1]; details: top dose 10.24 µM; top dose inferred
Method: as §1

GSK-650394 = compound: O=C(O)c1ccc(-c2c[nH]c3ncc(-c4ccccc4)cc23)cc1C1CCCC1 [GSK-650394]; details: top dose 16 µM; top dose inferred
Method: as §1

BMS-345541 = compound: Cc1ccc2nc(NCCN)c3ncc(C)n3c2c1 [BMS-345541]; details: top dose 16 µM
Method: as §1

AZD7762 = compound: NC(=O)Nc1cc(-c2cccc(F)c2)sc1C(=O)N[C@H]1CCCNC1 [AZD7762]; details: top dose 2 µM
Method: as §1

XAV 939 = compound: Oc1nc(-c2ccc(C(F)(F)F)cc2)nc2c1CSCC2 [XAV 939]; details: top dose 5 µM; top dose inferred
Method: as §1

Bexarotene = compound: C=C(c1ccc(C(=O)O)cc1)c1cc2c(cc1C)C(C)(C)CCC2(C)C [Bexarotene]; details: top dose 8 µM
Method: as §1

| Cell Line | AUC (Etoposide) | IC50 (Etoposide) [µM] | AUC (NPK76-II-72-1) | IC50 (NPK76-II-72-1) [µM] | AUC (GSK-650394) | IC50 (GSK-650394) [µM] | AUC (BMS-345541) | IC50 (BMS-345541) [µM] | AUC (AZD7762) | IC50 (AZD7762) [µM] | AUC (XAV 939) | IC50 (XAV 939) [µM] | AUC (Bexarotene) | IC50 (Bexarotene) [µM] |
| --- | --- | --- | --- | --- | --- | --- | --- | --- | --- | --- | --- | --- | --- | --- |
| 8505C (thyroid, adherent) | 0.47 | 0.823 | 0.943 | > 10.2 | 0.77 | 6.44 | 0.882 | > 16 | 0.647 | 0.327 | 0.983 | > 5 | 0.877 | > 8 |
| A388 (skin, adherent) | 0.608 | 2.07 | 0.982 | > 10.2 | 0.708 | 4.25 | 0.889 | > 16 | 0.84 | 1.69 | 0.964 | > 5 | 0.953 | > 8 |
| ATN-1 (T-cell lymphoblastic leukaemia, suspension) | 0.37 | 0.449 | 0.509 | 0.674 | 0.916 | > 16 | 0.432 | 0.66 | 0.327 | 0.0428 | 0.953 | > 5 | 0.755 | 2.55 |
| HT55 (large intestine, adherent) | 0.896 | > 16 | 0.966 | > 10.2 | 0.948 | > 16 | 0.986 | > 16 | 0.847 | 1.46 |  |  | 0.956 | > 8 |
| KMS-12-BM (myeloma, suspension) | 0.751 | 4.47 | 0.592 | 1.09 | 0.966 | > 16 | 0.831 | 7.83 | 0.513 | 0.134 |  |  | 0.978 | > 8 |
| KYSE-140 (oesophagus, adherent) | 0.713 | 4.39 | 0.938 | > 10.2 | 0.765 | 6.61 | 0.714 | 4.41 | 0.472 | 0.104 |  |  | 0.924 | > 8 |
| LB647-SCLC (small cell lung carcinoma, semi-adherent) | 0.586 | 1.77 |  |  | 0.856 | 15.5 | 0.724 | 4.73 | 0.558 | 0.184 | 0.983 | > 5 | 0.972 | > 8 |
| MHH-NB-11 (neuroblastoma, adherent) | 0.483 | 0.895 | 0.789 | 5.02 | 0.982 | > 16 | 0.802 | 8.76 | 0.698 | 0.479 |  |  | 0.985 | > 8 |
| MKN28 (stomach, adherent) | 0.657 | 2.75 | 0.973 | > 10.2 | 0.82 | 9.46 | 0.925 | > 16 | 0.824 | 1.22 |  |  | 0.936 | > 8 |
| MY-M12 (leukaemia, suspension) | 0.542 | 1.33 | 0.473 | 0.537 | 0.803 | 9.21 | 0.628 | 2.36 | 0.648 | 0.341 |  |  | 0.941 | > 8 |
| NB6 (neuroblastoma, adherent) | 0.902 | > 16 | 0.848 | > 10.2 | 0.967 | > 16 | 0.878 | > 16 | 0.809 | 1.35 |  |  | 0.898 | > 8 |
| NB69 (neuroblastoma, adherent) | 0.076 | < 0.0625 | 0.9 | > 10.2 | 0.942 | > 16 | 0.841 | 9.31 | 0.768 | 0.665 |  |  | 0.988 | > 8 |
| NCI-H64 (small cell lung carcinoma, suspension) | 0.742 | 3.93 | 0.869 | 5.62 | 0.966 | > 16 | 0.864 | 8.48 | 0.658 | 0.303 |  |  | 0.986 | > 8 |
| NCI-H510A (small cell lung carcinoma, semi-adherent) | 0.796 | 6.79 | 0.661 | 1.72 | 0.887 | 15.4 | 0.978 | > 16 | 0.921 | > 2 |  |  | 0.989 | > 8 |
| NCI-H1734 (lung adenocarcinoma, adherent) | 0.595 | 1.87 | 0.973 | > 10.2 | 0.919 | > 16 | 0.909 | > 16 | 0.477 | 0.107 |  |  | 0.985 | > 8 |
| NCI-H2052 (mesothelioma, adherent) | 0.788 | 9.26 | 0.969 | > 10.2 | 0.945 | > 16 | 0.964 | > 16 | 0.902 | > 2 |  |  | 0.974 | > 8 |
| PA-1 (ovary, adherent) | 0.15 | 0.12 | 0.767 | 3.03 | 0.704 | 3.24 | 0.709 | 3.33 | 0.874 | 1.26 |  |  | 0.945 | > 8 |
| SUP-B15 (lymphoblastic leukaemia, suspension) | 0.166 | 0.102 | 0.616 | 1.31 | 0.97 | > 16 | 0.674 | 2.99 | 0.598 | 0.23 |  |  | 0.916 | > 8 |
| VMRC-RCW (kidney, adherent) | 0.676 | 2.98 | 0.978 | > 10.2 | 0.799 | 7.06 | 0.919 | > 16 | 0.82 | 1.04 |  |  | 0.897 | > 8 |
